# Test results taken from the supplement of paper PMC7826260.
# This is one part of the list. Cleavage of a single-stranded DNA pool by Rep nickase domains was read by sequencing (1 h at 37 °C, 3 µM enzyme); the outer parts of the 90-letter strands are left off. Numbers give uncut DNA relative to the enzyme-free pool, as log2; the lower, the more was cut; hits are not called. Reads are scaled to the total; values above 0 arise when much of the pool is cut.
# Tested on: T1, Rep nickase domain of maize striate mosaic virus
# T1 sequence (protein, residues 1-117, tag omitted): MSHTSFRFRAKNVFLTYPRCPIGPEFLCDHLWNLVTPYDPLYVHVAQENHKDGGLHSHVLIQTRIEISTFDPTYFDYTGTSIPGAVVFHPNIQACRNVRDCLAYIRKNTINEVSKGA
# Test: uncleaved DNA left, log2 of reads against the no-enzyme library (log2 ratio); higher = less cleavage (more negative = more Rep cleavage of the k-mer); sequences stand for … in CTCGTCCG…ACCGGAGA
# Description: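 A pool of 90-nt single-stranded DNAs with seven random bases just before the constant AC of the nick site (name = the seven bases) was cut by 3 µM recombinant His6-SUMO-tagged Rep nickase domain (300 nM DNA, 50 mM HEPES pH 8.0, 50 mM NaCl, 1 mM MnCl2, 1 h, 37 °C, three replicates). Uncut DNA was amplified and sequenced.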
row,Sequence,uncleaved DNA left (log2)
1,CCTCCGC,-0.772
2,TAAGTGC,-1.32
3,CGTTTTT,-0.0906
4,CTCCCTA,-0.42
5,GCTAGAC,0.646
6,GATCTTG,-0.363
7,CGATCCC,-0.0648
8,CGCCCTA,-0.249
9,TGCTCGT,-0.699
10,GCTACAG,-0.653
11,GGGGACG,2.21
12,CGGAAAT,1.71
13,AGTTCTG,1.27
14,CTGAATG,0.297
15,CGGTTCG,-0.754
16,GTATGTT,1.49
17,TCTCCCC,0.439
18,CTGCCGT,-0.913
19,GCTGTCG,1.06
20,TAGGAAT,1.62

row,Sequence,uncleaved DNA left (log2)
1,AGCGGTG,1.56
2,CCCCTCC,0.494
3,CTACGAA,-0.71
4,TAAAAAT,-2.12
5,TCAAATA,-0.509
6,GCGGTAC,1.73
7,GACCTCC,0.338
8,CGAGTCA,-0.00269
9,CAATGGT,0.21
10,CTGATAC,-0.605
11,TTCAGAA,-0.013
12,ACCTCGC,-1.28
13,ACGCCTA,-0.37
14,CATTTCG,0.0505
15,CAGATAT,0.346
16,ACCCGCT,-1.02
17,GTACCAT,1.76
18,ACTAGGG,-0.956
19,ACATATT,-1.11
20,ATTGTTT,-0.648
